About 60 (0.1%) of roughly 46,000 compounds were called active. Inconclusive results (about 3%) are left out. Calls follow the shape of the dose curve; as a rule, active = well fitted inhibition curve with a large enough effect; inconclusive = small, poorly fitted or top-dose-only effect; inactive = no such curve, though single readings can be large or run the other way. Some of the results follow.
experiment: Primary qHTS assay for Inhibitors of ovarian cancer metastasis using an organotypic tumor microenvironment (TME) model.; also: nearly all actives have a fitted effect of over 65% in size;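 as to activity change, negative = inhibition: plate controls were DMSO wells for no effect and tomatine positive control wells for full effect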; conditions: SKOV3ip1-GFP adhesion/invasion on 3D omental model, fluorescence; series mostly up to 45.8 µM; activity change, negative = inhibition: at the top concentration
Method in brief: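 A 3D layer of primary human omental fibroblasts, mesothelial cells, fibronectin and collagen I, grown 48 hr, received SKOV3ip1-GFP cells in serum-free medium plus compounds at 0.36-46 umol/L. After 2 hr RT and 16 hr 37 C, fixed adherent GFP cells were counted; normalized to DMSO and tomatine.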

Activity change, negative = inhibition, inactive:
COc1ccccc1-c1nc2c3c(-c4ccccc4)c(-c4ccccc4)oc3ncn2n1 0.275%
COCCn1c(CNC(=O)c2ccc(C)cc2)nc2cccnc21 -0.0494%
COc1ccc(-n2ncc(C(=O)Nc3ccc4c(c3)OCCO4)c2C2CCN(C(=O)OC(C)(C)C)CC2)cc1 0.323%
COc1ccccc1N1CCN(C(=O)Cn2c(=O)n3nc(-c4cccc(C)c4)nc3c3ccccc32)CC1 7.42%
Cc1ccc(Nc2sc(C(=O)c3ccccc3)c(N)c2S(=O)(=O)c2ccccc2)c(C)c1 5.42%
Cc1nn2c(=O)cc(COC(=O)c3ccc(NC(=O)c4cccs4)cc3)nc2s1 -4.44%
O=C(Cn1cc(S(=O)(=O)Cc2ccccc2F)c2ccccc21)NCc1ccccc1Cl -6.17%
CCOC(=O)c1c(NC(=O)C(C)Oc2ccc(Cl)c(C)c2)sc2c1CCCC2 (stereo unspecified) -22.5%
CC(C)CSc1ccccc1NC(=O)c1sc2nc(-c3ccncc3)ccc2c1N 9.35%
Cc1ccc(S(=O)(=O)N2CCC(C(=O)Nc3ccc(Oc4ccccc4)cc3)CC2)cc1 0.168%
O=C(NCCc1ccccc1)c1ccc2c(c1)CCN2S(=O)(=O)c1ccccc1 -2.86%
CC(C)Cn1c(=O)c2ccccc2n2c(CCC(=O)Nc3ccc(F)c(F)c3)nnc12 -0.638%
CCN(C(=O)Cn1nc(Cc2ccncc2)c2ccccc2c1=O)c1cccc(C(F)(F)F)c1 0.0477%
COc1ccc(NC(=O)CCN2CCN(CCO)CC2)cc1 -4.6%
Cc1cccc(N2CCN(C(=O)c3ccc(NC(=O)c4nsc5ccccc45)cc3)CC2)c1C 3.36%
Cc1nc2c(C(=O)NCCc3ccccc3)c[nH]n2c(=O)c1Cc1ccc(F)cc1Cl 8.13%
Cc1ccc(NC(=O)Cn2nnc(-c3nc(-c4ccc(Cl)cc4)no3)c2N)cc1C 1.37%
CCOc1ccc(C(=O)Nc2ccc(-c3nc4ccccc4s3)c(C)c2)cc1OCC 9.14%
O=[N+]([O-])c1cc(-c2nc(-c3ccccc3)no2)ccc1NCCc1ccccc1 -2.02%
CCOc1ccc(N2CC(c3nc4ccccc4n3Cc3cccc(C)c3)CC2=O)cc1 (stereo unspecified) -1.76%
CCCn1c(CCC(=O)Nc2cccc(CC)c2)nc2cccnc21 -16.7%
Cc1ccc2nc(N(Cc3cccnc3)C(=O)c3cccs3)sc2c1 -3.58%
Cc1ccccc1CNC(=O)c1ccc(CS(=O)Cc2ccc(Cl)cc2)o1 (stereo unspecified) -5.67%
COc1ccc(-n2c(=O)c3sc4ccccc4c3n(CC(=O)NCc3ccccc3)c2=O)cc1 3.38%
Cc1ccc(CCNC(=O)c2ccc3c(c2)c(C)c(C)n3Cc2ccccc2)cc1 3.78%
CCOc1ccccc1C(=O)Nc1cc2c(cc1N1CCOCC1)n(C)c(=O)n2C 1.75%
Cc1ccc(OCC(=O)Nc2cc(-c3cccc(C)c3)nn2-c2ccccc2)cc1 -14.8%
CCc1nc2c(cnn2-c2ccc(Cl)cc2)c(=O)n1-c1ccc(OC)c(Cl)c1 -6.03%
COc1ccc(Cl)cc1NC(=O)CSc1nc(-c2ccccc2)c2ccccc2n1 -12.1%
CCn1c(CC2C(=O)N(C)c3ccccc32)nc2ccccc2c1=O (stereo unspecified) -3.33%
CCOc1ccc(CNC(=O)C2CCN(Cc3cc4ccccc4n3Cc3ccccc3C)CC2)cc1 -4.47%
CN(C)CCOC(c1ccccc1)c1ccccc1 -1.69%
Cc1nn(C(C)(C)C)c(OC(=O)c2cccc(F)c2)c1Sc1ccccc1 -1.88%
CC(C)CC(C(=O)NCCc1ccccc1)N1Cc2ccccc2C1=O (stereo unspecified) -16.6%
Cc1c(CNC2CCCCCC2)c(C(=O)O)c(C)n1Cc1ccc(F)cc1 9.59%
C[C@H]1C[C@@H]2[C@@H]([C@@H](O)C[C@@]3(C)[C@H]2CC[C@]3(O)C(=O)CO)[C@@]2(C)C=CC(=O)C=C12 -9.24%
CC(=O)Nc1ccc2nc(SCCOc3ccccc3)sc2c1 0.319%
Cc1ccc(NC(=O)C(=O)NCCCN2CCOCC2)cc1C 4.78%
Cc1cc(C)cc(NC(=O)CCS(=O)(=O)c2ccc3c(c2)oc(=O)n3C)c1 9.53%
O=C(NCc1ccccc1)N1CCc2c(sc3c2CCCC3)C1c1ccccc1 (stereo unspecified) -26.1%
COC(=O)c1ccc2c(=O)n(CCCCCC(=O)NC(C)C)c(=O)[nH]c2c1 15.7%
COc1ccccc1CNC(=O)c1ccc(Nc2nc3ccccc3n3nnnc23)cc1 -4.96%
CCOc1ccc(/C=C/c2nc3ccccc3n2S(=O)(=O)c2cccc(Cl)c2)cc1 -14.4%
CC(C)c1ccc(/C=C(\C#N)c2nc(-c3cc4ccccc4oc3=O)cs2)cc1 0.503%
CC1CCN(S(=O)(=O)c2ccc3nc(Nc4cccc(C(F)(F)F)c4)ccc3c2)CC1 -18.4%
Cc1ccc(CNC(=O)c2nc(S(=O)(=O)Cc3ccc(C)cc3)ncc2Cl)cc1 -9.4%

outcome, inactive:
CCCSc1ncc(Cl)c(C(=O)Nc2c(C(=O)c3ccc(F)cc3)oc3ccccc23)n1
COc1ccc(CCNC(=O)c2c(C)nn(-c3ccc(F)cc3)c2-n2cccc2)c(OC)c1OC
Cc1cc(C)cc(NC(=O)CN2C(=O)CCc3cc(S(=O)(=O)N4CCCCC4)ccc32)c1
CCN(c1cc(C)cc(C)c1)S(=O)(=O)c1nnc(NC(=O)c2ccco2)s1
COc1ccc2[nH]cc(CCNC(=O)c3cnn(-c4ccccc4Cl)c3C3CCN(C(=O)OC(C)(C)C)CC3)c2c1
O=C(Nc1cccc(F)c1)[C@@H](c1ccccc1)N1Cc2ccccc2C1=O
CCc1ccc(NC(=O)CCCn2nc(C)c3c(C)n(-c4ccccc4)nc3c2=O)cc1
CCCSc1nnc2n(-c3ccc(OC)cc3)c(=O)c3c4c(sc3n12)COC(C(C)C)C4 (stereo unspecified)
CCc1ccc(CN(Cc2ccco2)C(=O)COc2ccc(Cl)cc2C)cc1
Cc1cccc(-n2ncc3c(N4CCN(CCO)CC4)ncnc32)c1
O=C(Nc1nnc2n1CCS2)c1ccccc1
Cc1ccc(Cl)cc1NC(=O)N1CCc2cc(S(=O)(=O)N3CCC(C)CC3)ccc21
CCOC(=O)c1cc(-c2ccc(OC)cc2)n(CCC(=O)Nc2ccc(OC)cc2OC)c1C
CCOc1ccc(C(=O)Nc2ccc3nc(SCC(=O)N(C)c4ccccc4)sc3c2)cc1
COc1cccc(-c2nc(SCC(=O)NC3CCCC3)c(-c3ccc(F)cc3)[nH]2)c1
